Measured values reported in the supplement of paper PMC8728848.
The list shows a part of the results.

Legend:
Assay in all cases: glycan array binding signal (z-score within array); higher = stronger binding
Conditions in all cases: glycan notation: IUPAC condensed, linker removed
[1] = biological target: Gal4S6S(b1-4)GlcNAc
Procedure, shortened: (§1)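 The Consortium for Functional Glycomics database supplied 3228 glycan arrays, of which those lacking an available protein sequence were dropped. The binding signal, a within-array Z-score, was averaged across arrays of the same protein sequence and across linkers. Negative scores can be read as non-binding.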

[2] = biological target: Gal6S(b1-4)Glc
Procedure, shortened: as §1

[3] = biological target: Gal6S(b1-4)Glc6S
Procedure, shortened: as §1

[4] = biological target: Gal6S(b1-4)GlcNAc
Procedure, shortened: as §1

[5] = biological target: GalNAc(a1-3)Gal
Procedure, shortened: as §1

[6] = biological target: GalNAc(a1-3)GalNAc
Procedure, shortened: as §1

[7] = biological target: GalNAc(b1-3)Gal(a1-4)Gal(b1-4)GlcNAc
Procedure, shortened: as §1

[8] = biological target: GalNAc(b1-3)GalNAc
Procedure, shortened: as §1

[9] = biological target: GalNAc(b1-4)GlcNAc
Procedure, shortened: as §1

[10] = biological target: Glc(a1-4)Glc
Procedure, shortened: as §1

[11] = biological target: Glc(a1-6)Glc(a1-6)Glc
Procedure, shortened: as §1

[12] = biological target: Glc(b1-4)Glc
Procedure, shortened: as §1

[13] = biological target: Glc(b1-6)Glc
Procedure, shortened: as §1

[14] = biological target: GlcA(b1-3)Gal
Procedure, shortened: as §1

[15] = biological target: GlcA(b1-6)Gal
Procedure, shortened: as §1

[16] = biological target: GlcNAc(a1-3)Gal(b1-4)GlcNAc
Procedure, shortened: as §1

[17] = biological target: GlcNAc(a1-6)Gal(b1-4)GlcNAc
Procedure, shortened: as §1

[18] = biological target: GlcNAc(b1-2)Gal(b1-3)GalNAc
Procedure, shortened: as §1

[19] = biological target: GlcNAc(b1-2)Man(a1-3)[GlcNAc(b1-2)Man(a1-6)]Man(b1-4)GlcNAc(b1-4)GlcNAc
Procedure, shortened: as §1

[20] = biological target: GlcNAc(b1-3)Gal
Procedure, shortened: as §1

[21] = biological target: GlcNAc(b1-3)Gal(b1-3)GalNAc
Procedure, shortened: as §1

[22] = biological target: GlcNAc(b1-3)Gal(b1-4)Glc
Procedure, shortened: as §1

[23] = biological target: GlcNAc(b1-3)Gal(b1-4)GlcNAc
Procedure, shortened: as §1

[24] = biological target: GlcNAc(b1-3)Gal(b1-4)GlcNAc(b1-3)Gal(b1-4)GlcNAc
Procedure, shortened: as §1

[25] = biological target: GlcNAc(b1-3)GalNAc
Procedure, shortened: as §1

[26] = biological target: GlcNAc(b1-3)[GlcNAc(b1-6)]Gal(b1-4)GlcNAc
Procedure, shortened: as §1

[27] = biological target: GlcNAc(b1-3)[GlcNAc(b1-6)]GalNAc
Procedure, shortened: as §1

[28] = biological target: GlcNAc(b1-3)[GlcNAc(b1-6)]GlcNAc(b1-4)GlcNAc
Procedure, shortened: as §1

[29] = biological target: GlcNAc(b1-4)Gal(b1-4)GlcNAc
Procedure, shortened: as §1

[30] = biological target: GlcNAc(b1-4)GlcNAc(b1-4)GlcNAc
Procedure, shortened: as §1

[31] = biological target: GlcNAc(b1-4)GlcNAc(b1-4)GlcNAc(b1-4)GlcNAc(b1-4)GlcNAc
Procedure, shortened: as §1

[32] = biological target: GlcNAc(b1-4)GlcNAc(b1-4)GlcNAc(b1-4)GlcNAc(b1-4)GlcNAc(b1-4)GlcNAc
Procedure, shortened: as §1

[33] = biological target: GlcNAc(b1-4)[GlcNAc(b1-6)]GalNAc
Procedure, shortened: as §1

[34] = biological target: GlcNAc(b1-6)Gal(b1-4)GlcNAc
Procedure, shortened: as §1

[35] = biological target: GlcNAc(b1-6)GalNAc
Procedure, shortened: as §1

[36] = biological target: Kdn(a2-3)Gal(b1-3)GlcNAc
Procedure, shortened: as §1

[37] = biological target: Kdn(a2-3)Gal(b1-4)GlcNAc
Procedure, shortened: as §1

[38] = biological target: Man(a1-2)Man(a1-2)Man(a1-3)Man
Procedure, shortened: as §1

[39] = biological target: Man(a1-2)Man(a1-2)Man(a1-6)[Man(a1-3)]Man
Procedure, shortened: as §1

[40] = biological target: Man(a1-2)Man(a1-3)Man
Procedure, shortened: as §1

[41] = biological target: Man(a1-2)Man(a1-3)[Man(a1-2)Man(a1-6)]Man
Procedure, shortened: as §1

[42] = biological target: Man(a1-2)Man(a1-3)[Man(a1-2)Man(a1-6)]Man(a1-6)[Man(a1-2)Man(a1-2)Man(a1-3)]Man(b1-4)GlcNAc(b1-4)GlcNAc
Procedure, shortened: as §1

[43] = biological target: Man(a1-2)Man(a1-3)[Man(a1-6)]Man(a1-6)[Man(a1-2)Man(a1-3)]Man(b1-4)GlcNAc(b1-4)GlcNAc
Procedure, shortened: as §1

[44] = biological target: Man(a1-2)Man(a1-6)[Man(a1-3)]Man(a1-6)[Man(a1-2)Man(a1-2)Man(a1-3)]Man(b1-4)GlcNAc(b1-4)GlcNAc
Procedure, shortened: as §1

[45] = biological target: Man(a1-3)[Man(a1-6)]Man
Procedure, shortened: as §1

B1: CV-IIL (Chromobacterium violaceum) (protein)
chain: AQQGVFTLPARINFGVTVLVNSAATQHVEIFVDNEPRAAFSGVGTGDNNLGTKVINSGSGNVRVQITANGRQSDLVSSQLVLANKLNLAVVGSEDGTDMDYNDSIVILNWPLG
[1]
  glycan array binding signal (z-score): -0.502
[2]
  glycan array binding signal (z-score): -0.501
[3]
  glycan array binding signal (z-score): -0.499
[4]
  glycan array binding signal (z-score): -0.502
[5]
  glycan array binding signal (z-score): -0.502
[6]
  glycan array binding signal (z-score): -0.501
[7]
  glycan array binding signal (z-score): -0.501
[8]
  glycan array binding signal (z-score): -0.501
[9]
  glycan array binding signal (z-score): -0.493
[10]
  glycan array binding signal (z-score): -0.49
[11]
  glycan array binding signal (z-score): -0.493
[12]
  glycan array binding signal (z-score): -0.483
[13]
  glycan array binding signal (z-score): -0.498
[14]
  glycan array binding signal (z-score): -0.499
[15]
  glycan array binding signal (z-score): -0.486
[16]
  glycan array binding signal (z-score): -0.502
[17]
  glycan array binding signal (z-score): -0.501
[18]
  glycan array binding signal (z-score): -0.502
[19]
  glycan array binding signal (z-score): -0.463
[20]
  glycan array binding signal (z-score): -0.494
[21]
  glycan array binding signal (z-score): -0.501
[22]
  glycan array binding signal (z-score): -0.502
[23]
  glycan array binding signal (z-score): -0.5
[24]
  glycan array binding signal (z-score): -0.501
[25]
  glycan array binding signal (z-score): -0.501
[26]
  glycan array binding signal (z-score): -0.502
[27]
  glycan array binding signal (z-score): -0.502
[28]
  glycan array binding signal (z-score): -0.501
[29]
  glycan array binding signal (z-score): -0.502
[30]
  glycan array binding signal (z-score): -0.501
[31]
  glycan array binding signal (z-score): -0.501
[32]
  glycan array binding signal (z-score): -0.501
[33]
  glycan array binding signal (z-score): -0.502
[34]
  glycan array binding signal (z-score): -0.501
[35]
  glycan array binding signal (z-score): -0.5
[36]
  glycan array binding signal (z-score): -0.502
[37]
  glycan array binding signal (z-score): -0.502
[38]
  glycan array binding signal (z-score): 1.6
[39]
  glycan array binding signal (z-score): 2.51
[40]
  glycan array binding signal (z-score): 1.55
[41]
  glycan array binding signal (z-score): 2.5
[42]
  glycan array binding signal (z-score): 1.82
[43]
  glycan array binding signal (z-score): 2.41
[44]
  glycan array binding signal (z-score): 2.64
[45]
  glycan array binding signal (z-score): 2.82
